Laboratory results as given in the supplement of paper PMC8728848.
The list shows a part of the results.

What was measured:
Assay in all cases: glycan array binding signal (z-score within array); higher = stronger binding
Settings in all cases: glycan notation: IUPAC condensed, linker removed
[1] = target: GalNAc(b1-4)GlcNAc(b1-2)Man
In short: (§1)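 Negative Z-scores can be read as non-binding. The Z-score is calculated within each array and then averaged across arrays of one protein sequence at different concentrations or buffers and across linkers. Arrays, 3228 in all, were curated from the Consortium for Functional Glycomics database and kept only where the protein sequence was available.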

[2] = target: GalNAc(b1-4)GlcNAc(b1-2)Man(a1-3)[GalNAc(b1-4)GlcNAc(b1-2)Man(a1-6)]Man(b1-4)GlcNAc(b1-4)GlcNAc
In short: as §1

[3] = target: GalNAc(b1-4)GlcNAc(b1-3)GalNAc(b1-4)GlcNAc
In short: as §1

GalNAc(b1-4)GlcNAc6S = target: GalNAc(b1-4)GlcNAc6S
In short: as §1

GalNAc(b1-6)GalNAc = target: GalNAc(b1-6)GalNAc
In short: as §1

GalNAc3S(b1-4)GlcNAc = target: GalNAc3S(b1-4)GlcNAc
In short: as §1

GalNAc3S(b1-4)GlcNAc3S = target: GalNAc3S(b1-4)GlcNAc3S
In short: as §1

[4] = target: GalNAc3S(b1-4)[Fuc(a1-3)]GlcNAc
In short: as §1

GalNAc4S6S(b1-4)GlcNAc = target: GalNAc4S6S(b1-4)GlcNAc
In short: as §1

GalNAc6S(b1-4)GlcNAc = target: GalNAc6S(b1-4)GlcNAc
In short: as §1

Glc(a1-4)Glc = target: Glc(a1-4)Glc
In short: as §1

[5] = target: Glc(a1-4)Glc(a1-4)Glc(a1-4)Glc
In short: as §1

Glc(a1-6)Glc(a1-6)Glc = target: Glc(a1-6)Glc(a1-6)Glc
In short: as §1

[6] = target: Glc(a1-6)Glc(a1-6)Glc(a1-6)Glc
In short: as §1

Glc(b1-4)Glc = target: Glc(b1-4)Glc
In short: as §1

Glc(b1-6)Glc = target: Glc(b1-6)Glc
In short: as §1

GlcA(b1-3)Gal = target: GlcA(b1-3)Gal
In short: as §1

GlcA(b1-3)GlcNAc = target: GlcA(b1-3)GlcNAc
In short: as §1

GlcA(b1-6)Gal = target: GlcA(b1-6)Gal
In short: as §1

[7] = target: GlcA3S(b1-3)Gal(b1-4)GlcNAc(b1-2)Man
In short: as §1

[8] = target: GlcA3S(b1-3)Gal(b1-4)GlcNAc(b1-3)Gal(b1-4)Glc
In short: as §1

[9] = target: GlcNAc(a1-3)Gal(b1-4)GlcNAc
In short: as §1

[10] = target: GlcNAc(a1-4)Gal(b1-3)GlcNAc
In short: as §1

[11] = target: GlcNAc(a1-4)Gal(b1-4)GalNAc
In short: as §1

[12] = target: GlcNAc(a1-4)Gal(b1-4)GlcNAc
In short: as §1

[13] = target: GlcNAc(a1-4)Gal(b1-4)GlcNAc(b1-3)Gal(b1-4)Glc
In short: as §1

[14] = target: GlcNAc(a1-4)Gal(b1-4)GlcNAc(b1-3)Gal(b1-4)GlcNAc
In short: as §1

[15] = target: GlcNAc(a1-4)Gal(b1-4)GlcNAc(b1-3)Gal(b1-4)GlcNAc(b1-3)Gal(b1-4)GlcNAc
In short: as §1

[16] = target: GlcNAc(a1-4)Gal(b1-4)GlcNAc(b1-3)Gal(b1-4)[Fuc(a1-3)]GlcNAc(b1-3)Gal(b1-4)[Fuc(a1-3)]GlcNAc
In short: as §1

[17] = target: GlcNAc(a1-6)Gal(b1-4)GlcNAc
In short: as §1

[18] = target: GlcNAc(b1-2)Gal(b1-3)GalNAc
In short: as §1

[19] = target: GlcNAc(b1-2)Man(a1-3)[GlcNAc(b1-2)Man(a1-6)]Man(b1-4)GlcNAc(b1-4)GlcNAc
In short: as §1

[20] = target: GlcNAc(b1-2)Man(a1-3)[GlcNAc(b1-2)Man(a1-6)]Man(b1-4)GlcNAc(b1-4)[Fuc(a1-6)]GlcNAc
In short: as §1

[21] = target: GlcNAc(b1-2)Man(a1-3)[GlcNAc(b1-4)][GlcNAc(b1-2)Man(a1-6)]Man(b1-4)GlcNAc(b1-4)GlcNAc
In short: as §1

[22] = target: GlcNAc(b1-2)Man(a1-3)[GlcNAc(b1-4)][GlcNAc(b1-2)Man(a1-6)]Man(b1-4)GlcNAc(b1-4)[Fuc(a1-6)]GlcNAc
In short: as §1

[23] = target: GlcNAc(b1-2)[GlcNAc(b1-4)]Man(a1-3)[GlcNAc(b1-2)Man(a1-6)]Man(b1-4)GlcNAc(b1-4)GlcNAc
In short: as §1

[24] = target: GlcNAc(b1-2)[GlcNAc(b1-4)]Man(a1-3)[GlcNAc(b1-4)][GlcNAc(b1-2)Man(a1-6)]Man(b1-4)GlcNAc(b1-4)GlcNAc
In short: as §1

[25] = target: GlcNAc(b1-2)[GlcNAc(b1-4)]Man(a1-3)[GlcNAc(b1-4)][GlcNAc(b1-2)[GlcNAc(b1-6)]Man(a1-6)]Man(b1-4)GlcNAc(b1-4)GlcNAc
In short: as §1

[26] = target: GlcNAc(b1-2)[GlcNAc(b1-4)]Man(a1-3)[GlcNAc(b1-4)][GlcNAc(b1-2)[GlcNAc(b1-6)]Man(a1-6)]Man(b1-4)GlcNAc(b1-4)[Fuc(a1-6)]GlcNAc
In short: as §1

[27] = target: GlcNAc(b1-2)[GlcNAc(b1-6)]Man(a1-6)[GlcNAc(b1-2)Man(a1-3)]Man(b1-4)GlcNAc(b1-4)GlcNAc
In short: as §1

[28] = target: GlcNAc(b1-2)[GlcNAc(b1-6)]Man(a1-6)[GlcNAc(b1-2)Man(a1-3)]Man(b1-4)GlcNAc(b1-4)[Fuc(a1-6)]GlcNAc
In short: as §1

[29] = target: GlcNAc(b1-2)[GlcNAc(b1-6)]Man(a1-6)[GlcNAc(b1-4)][GlcNAc(b1-2)Man(a1-3)]Man(b1-4)GlcNAc(b1-4)GlcNAc
In short: as §1

GlcNAc(b1-3)Fuc = target: GlcNAc(b1-3)Fuc
In short: as §1

GlcNAc(b1-3)Gal = target: GlcNAc(b1-3)Gal
In short: as §1

[30] = target: GlcNAc(b1-3)Gal(b1-3)GalNAc
In short: as §1

B1: rEtpA (Escherichia coli) (protein)
chain: MNRIYKLKFDKRRNELVVVSEITTGVGNAKATGSVEGEKSPRRGVRAMALSLLSGMMIMAHPAMSANLPTGGQIVAGSGSIQTPSGNQMNIHQNSQNMVANWNSFDIGKGNTVQFDQPSSSAVALNRVVGGGESQIMGNLKANGQVFLVNPNGVLFGEGASVSTSGFVASTRDIKNDDFMNRRYTFSGGQKAGAAIVNQGELTTNAGGYIVLAADRVSNSGTIRTPGGKTVLAASERITLQLDNGGLMSVQVTGDVVNALVENRGLVSARDGQVYLTALGRGMLMNTVLNVSGVVEASGMHRQDGNIVLDGGDSGVVHLSGTLQADNASGQGGKVVVQGKNILLDKGSNITATGGQGGGEVYVGGGWQGKDSNIRNADKVVMQGGARIDVSATQQGNGGTAVLWSDSYTNFHGQISAKGGETGGNGGRVETSSHGNLQAFGTVSASAKKGKAGNWLLDSADITIVNGSNVSKTETTQSPPHTQFAPTAAGSAVSNTSINNRLNNGTSVTILTHRTRTGTAQGGNITVNAAINKSNGSDVNLTLQAGGNITVNNSITSTEGKLNVNLSGARTSNGSITISNNANITTNGGDITVGTTNTSNRVNISINNTTLNASNGNIQLTGTGTDSGILFAGNNRLTASNIALTGNSTSGNAINLTGTATLNATNNITLTGSSTSGNAINLKGNNTLTASNITLTGESTSGNAINLTDTTGTTTLNATNNITMQGTRVQIKHSNITAGNFALNATVAGSEISNTTLTATNNINLAAKTNSASSGVYLKDARITSTNGSITANGTATANGKATHLDGNVTLNASNGRIKLTGNGHGSASGILFAGNNRLTASNIALTGNSTSGNAINLTGTATLNATNDITLTGSSTSGNAINLTGTATLNATNNITLTGSSTSGNAINLKGNNTLTASNITLTGESTSGNAINLTDTTGTTTLNATNNITMQGTRVQIKHSNITAGNFALNATVAGSEISNTTLTATNNINLAAKTNSASSGVYLKDARITSTNGSITANGTATANGKATHLDGNVTLNASNGRIKLTGNGHGSASGILFAGNNRLTASNIALTGNSTSGNAINLTGTATLNATNDITLTGSSTSGNAINLTGTATLNATNNITLTGSSTSGNAINLKGNNTLTASNITLTGESTSGNAINLTDTTGTTTLNATNNITMQGTRVQIKHSNITAGNFALNATVAGSEISNTTLTATNNINLAAKTNSASSGVYLKDARITSTNGSITANGTATANGKATHLDGNVTLNASNGRIKLTGNGHGSASGILFAGNNRLTASNIALTGNSTSGNAINLTGTATLNATNDITLTGSSTSGNAINLTGTATLNATNNITLTGSSTSGNAINLKGNNTLTASNITLTGESTSGNAINLTDTTGTTTLNATNNITMQGTRVQIKHSNITAGNFALNATVAGSEISNTTLTATNNINLAAKTNSASSGVYLKDARITSTNGSITTNGTATANGKATHLDGNVTLNASNGRIKLTGNGHGSASGILFAGNNRLTASNIALTGNSTSGNAINLTGTATLNATNDITLTGSSTSGNAINLTGTATLNATNNITLTGSSTSGNAINLKGNNTLTASNITLTGESTSGNAINLTDTTGTTTLNATNNITMQGTRVQIKHSNITAGNFALNATVAGSEISNTTLTATNNINLAAKTNSASSGVYLKDARITSTNGSITANGTAPANDNATYLDGNVTLNASNGSIKLTGNGNGSTSGILFAGNNTLTASNITLTGNSEVYWQKLGPEQKLISEEDLNSAVDHHHHHH
[1]
  glycan array binding signal (z-score): -0.277
[2]
  glycan array binding signal (z-score): -0.255
[3]
  glycan array binding signal (z-score): -0.412
GalNAc(b1-4)GlcNAc6S
  glycan array binding signal (z-score): -0.25
GalNAc(b1-6)GalNAc
  glycan array binding signal (z-score): 0.129
GalNAc3S(b1-4)GlcNAc
  glycan array binding signal (z-score): 0.119
GalNAc3S(b1-4)GlcNAc3S
  glycan array binding signal (z-score): -0.247
[4]
  glycan array binding signal (z-score): -0.313
GalNAc4S6S(b1-4)GlcNAc
  glycan array binding signal (z-score): -0.171
GalNAc6S(b1-4)GlcNAc
  glycan array binding signal (z-score): -0.237
Glc(a1-4)Glc
  glycan array binding signal (z-score): -0.364
[5]
  glycan array binding signal (z-score): 1.05
Glc(a1-6)Glc(a1-6)Glc
  glycan array binding signal (z-score): -0.067
[6]
  glycan array binding signal (z-score): 0.087
Glc(b1-4)Glc
  glycan array binding signal (z-score): -0.463
Glc(b1-6)Glc
  glycan array binding signal (z-score): 0.231
GlcA(b1-3)Gal
  glycan array binding signal (z-score): 0.029
GlcA(b1-3)GlcNAc
  glycan array binding signal (z-score): -0.337
GlcA(b1-6)Gal
  glycan array binding signal (z-score): 0.054
[7]
  glycan array binding signal (z-score): -0.154
[8]
  glycan array binding signal (z-score): -0.066
[9]
  glycan array binding signal (z-score): -0.362
[10]
  glycan array binding signal (z-score): 2.45
[11]
  glycan array binding signal (z-score): 10.8
[12]
  glycan array binding signal (z-score): 5.29
[13]
  glycan array binding signal (z-score): 4.48
[14]
  glycan array binding signal (z-score): 7.75
[15]
  glycan array binding signal (z-score): 10.9
[16]
  glycan array binding signal (z-score): 6.35
[17]
  glycan array binding signal (z-score): -0.355
[18]
  glycan array binding signal (z-score): -0.279
[19]
  glycan array binding signal (z-score): -0.317
[20]
  glycan array binding signal (z-score): -0.396
[21]
  glycan array binding signal (z-score): -0.259
[22]
  glycan array binding signal (z-score): -0.417
[23]
  glycan array binding signal (z-score): -0.323
[24]
  glycan array binding signal (z-score): 1.45
[25]
  glycan array binding signal (z-score): -0.311
[26]
  glycan array binding signal (z-score): -0.319
[27]
  glycan array binding signal (z-score): -0.317
[28]
  glycan array binding signal (z-score): -0.327
[29]
  glycan array binding signal (z-score): -0.439
GlcNAc(b1-3)Fuc
  glycan array binding signal (z-score): -0.018
GlcNAc(b1-3)Gal
  glycan array binding signal (z-score): -0.454
[30]
  glycan array binding signal (z-score): -0.309
